From PubChem BioAssay AID1508623 (National Center for Advancing Translational Sciences (NCATS), 2021) come the findings set out here.

The structures appear in SMILES notation. Screen size: about 48,000 compounds; about 450 (0.94%) were called active. Roughly 19% stayed inconclusive and do not appear here. Calls follow the shape of the dose curve; as a rule, active = well fitted inhibition curve with a large enough effect; inconclusive = small, poorly fitted or top-dose-only effect; inactive = no such curve, though single readings can be large or run the other way. Some of the results follow.

The assay in a line: Primary qHTS for Identification of Small Molecule Inhibitors of Huntingtin Promoter Activity. Also: nearly all actives have a fitted effect of over 50% in size. The conditions noted are these: HEK293 HTT promoter firefly luciferase reporter (activity 0% = vehicle and -100% = no light), 24 h; series mostly up to 57.5 µM; activity change, negative = inhibition: at the top concentration. The procedure, abridged:
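HEK293 Fluc reporter, 2,500 cells/well, 24 h pre-culture; cpds up to 57.5 uM final, 24 h 37 degrees C; Dual-Glo, 10 min RT; normalized vehicle = 0%, zero RLU = -100%.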
Take `CCc1nc(SCc2cc(=O)c3cc(F)ccc3[nH]2)n[nH]1`: the “activity change, negative = inhibition” value is inactive: -1.69%. Next, `Cc1ccc(NC(=O)Cn2ncc3c4ccccc4n(Cc4ccccc4)c3c2=O)cc1Cl`: inactive: 4.07%; `Cc1cn2c(=O)c(S(=O)(=O)NC(C)c3ccccc3)c(C)nc2s1` (stereo not drawn): inactive: -7.69%. With `CCCCCCCCCCCCOCCOCCOCCOCCOCCOCCOCCOCCOCCO`, the “activity change, negative = inhibition” value was inactive: -29.3%. Regarding `CS(=O)(=O)c1ccc(-c2cn3ccccc3n2)cc1`, the “activity change, negative = inhibition” value is inactive: 6.72%. Turning to `Cc1cc2nc(-c3cccc(NC(=O)COc4ccc(C(C)C)cc4)c3)oc2cc1C`, the “activity change, negative = inhibition” value was inactive: 74.3%. Turning to `COc1ccc(N2CCN(C(=O)c3c(C)oc4nc(C)nc(N5CCCC5)c34)CC2)cc1`, the “activity change, negative = inhibition” value was inactive: -0.0231%. Consider `Cc1ccc(N(C)S(=O)(=O)c2c(-c3ccccc3)csc2C(=O)O)cc1`, for which the “activity change, negative = inhibition” value is inactive: -17.4%. As for `COc1ccc(-c2nc(C)c(CCNC(=O)c3cccs3)s2)cc1`, the “activity change, negative = inhibition” value was inactive: 1.13%.

With `Cc1ccccc1-c1nnc(SCC(=O)N2CCCc3ccccc32)o1`, the “activity change, negative = inhibition” value is inactive: 36.5%. Next, `Cc1ccc(NC(=O)N2CCC(CN3CCCCCC3)CC2)c(Cl)c1`: inactive: 3.52%. As to `CC(C)c1ccc(N2C(=O)CSC23C(=O)N(Cc2ccccc2F)c2ccccc23)cc1` (stereo not drawn), the “activity change, negative = inhibition” value was inactive: -19.7%. As to `CCCNC(=O)c1c(NC(=O)c2ccccc2F)sc2c1CCCCC2`, the “activity change, negative = inhibition” value is inactive: 1.8%.

Consider `Cc1cccc(C(=O)OCc2cc(=O)n3nc(C4CC4)sc3n2)c1`, for which the “activity change, negative = inhibition” value was inactive: -0.932%. As to `COc1ccc(-c2nc(SCC(=O)Nc3ccc4c(c3)OCO4)c(-c3ccc(F)cc3)[nH]2)cc1OC`, the “activity change, negative = inhibition” value was inactive: -19.6%. The figure for `CCOc1ccccc1NC(=O)CCc1nc(-c2cccc(C)c2)no1` is inactive: -2.4%.

Turning to `COc1cc2c(cc1OC)CC(=O)N(CCCN(C)C[C@H]1Cc3cc(OC)c(OC)cc31)CC2`, the “activity change, negative = inhibition” value was inactive: -7.65%. On to `COc1cccc(-n2c(=O)c3sccc3n(Cc3cc(=O)n4cc(Cl)ccc4n3)c2=O)c1`, for which the “activity change, negative = inhibition” value was inactive: -4.39%. As to `CCC(=O)N1CCc2cc(S(=O)(=O)NCCC(=O)NCc3ccc(OC)cc3)ccc21`, the “activity change, negative = inhibition” value was inactive: -26.3%. As for `Cc1ccc(C(=O)Nc2cc3cc(Cl)ccc3oc2=O)cc1`, the “activity change, negative = inhibition” value is inactive: -10.1%. Next, `Cc1ccc(-c2nc(CCNC(=O)C(=O)Nc3ccc(F)cc3F)cs2)cc1`: inactive: -4.91%; `Cc1ccc2c(c1)N(CC(=O)NCCCN1CCCCC1)C(=O)c1cccnc1O2`: inactive: -0.849%.

Consider `COc1ccccc1NCc1nnc2n1CCCCC2`, for which the “activity change, negative = inhibition” value was inactive: -4.68%. For `COc1ccccc1CNC(=O)CCCN1C(=O)CCn2nc(-c3cn(C)c4ccccc34)cc21`, the “activity change, negative = inhibition” value is inactive: -12.1%. Consider `CC(C)C(=O)Nc1c(C(=O)N2CCN(c3ccccc3F)CC2)oc2ccccc12`, for which the “activity change, negative = inhibition” value is inactive: -12%. For the compound `Fc1ccc(C(c2nnc(-c3ccccc3)o2)N2CCN(c3ccccc3)CC2)c(Cl)c1` (stereo not drawn), the “activity change, negative = inhibition” value is inactive: -34.9%. As for `Cc1ccc(-c2nc3sc(CCNC(=O)c4ccco4)c(C)n3n2)cc1`, the “activity change, negative = inhibition” value was inactive: -21.1%.

Consider `COc1cc([C@@H]2c3cc4c(cc3[C@H](O)[C@H]3COC(=O)[C@@H]23)OCO4)cc(OC)c1OC`, for which the “activity change, negative = inhibition” value is inactive: -32.8%.

With `COc1cc(Cl)c(C)cc1NC(=O)c1nn(-c2ccc(C)cc2)c(=O)n(C)c1=O`, the “activity change, negative = inhibition” value was inactive: 8.78%. In the case of `Cc1ccc(CSc2nc3ccncc3n2Cc2nc(-c3ccc(Cl)cc3)oc2C)cc1`, the “activity change, negative = inhibition” value was inactive: 13.5%. For the compound `CCOc1ccc(N2CC(NC(=O)c3cc4ccccc4o3)CC2=O)cc1` (stereo not drawn), the “activity change, negative = inhibition” value is inactive: -1.8%.

In the case of `COc1cccc(NC(=O)CSc2c(C)cnc3c2c(=O)n(C)c(=O)n3C)c1`, the “activity change, negative = inhibition” value was inactive: -18.5%. As for `CCCOC(=O)c1c(NC(=O)c2cc3nc(-c4ccc(OC)cc4)cc(C(F)(F)F)n3n2)sc2c1CCCC2`, the “activity change, negative = inhibition” value was inactive: -9.67%. Next, `CCOC(=O)c1ccc(NC(=O)C(=O)NCCc2ccc(OC)cc2)cc1`: inactive: -0.753% [at 11.5 µM]; `COc1ccc2oc(=O)c(C(=O)N3CCN(c4cc(Cl)ccc4Cl)CC3)cc2c1`: inactive: -8.75%; `COc1ccccc1N1CCN(C(=O)c2cnn(C(C)(C)C)c2C2CCN(C(=O)OC(C)(C)C)CC2)CC1`: inactive: -11.7%.

With `COc1ccc(Nc2cc(C(=O)NCc3cccs3)c3ccccc3n2)cc1`, the “activity change, negative = inhibition” value is inactive: 13.6%. Consider `CCCCOC(=O)Cn1nnc2sc(-c3ccccc3)cc2c1=O`, for which the “activity change, negative = inhibition” value is inactive: 9.41%. Take `CN1CCN(C(=O)C(=O)Nc2c3c(nn2-c2cccc(Cl)c2)CSC3)CC1`: the “activity change, negative = inhibition” value is inactive: -12.6%.

For `O=C(CCCCn1c(=O)c2ccccc2n(CC(=O)Nc2ccc(F)cc2F)c1=O)NCc1ccccc1Cl`, the “activity change, negative = inhibition” value was inactive: -8.23%. For `O=C(CSc1ncc(-c2ccccc2)[nH]1)Nc1ccc(F)cc1F`, the “activity change, negative = inhibition” value was inactive: -4.93%. For `Cc1ccc(Cn2c(=O)n(CCc3ccccc3)c(=O)c3c(C)c(C)sc32)cc1`, the “activity change, negative = inhibition” value was inactive: -20.9%. The figure for `CCc1ccccc1N1C(=O)N(CC(=O)c2ccc(Cl)cc2)c2ccccc2S1(=O)=O` is inactive: -20.4%. Next, `CCOC(=O)c1c(C)[nH]c(C)c1S(=O)(=O)N1CCCC(C(=O)NCc2ccc(C)cc2)C1` (stereo not drawn): inactive: -9.16%; `COC(=O)c1c(SC)nc2ccccc2c1OCc1ccc(C)cc1`: inactive: 1.44%; `CCOC(=O)Cn1c(=O)oc2cc(S(=O)(=O)N3CCCC(C)C3)ccc21` (stereo not drawn): inactive: -21.1%. Next, `CCOC(=O)c1cc(S(=O)(=O)N2CCN(c3cccc(OC)c3)CC2)[nH]n1`: inactive: -31.1%; `CCCCn1cc(S(=O)(=O)c2ccc(Cl)cc2)c(=O)c2cc(F)c(N3CCCC(C)C3)cc21` (stereo not drawn): inactive: 0.521%.
